{"source": "the supplement of paper PMC10338343", "note": "± gives the standard deviation. The list shows a part of the results, in another mix than the full data.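 Also: 1 nM active piRISC with 0.1 nM target library at 33 °C single turnover.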"}
{"test_system": "MIWI (PIWIL1) piRISC loaded with L1MC piRNA (30 nt)", "experiment": "pre-steady-state target cleavage rate (min^-1); MIWI and MILI are mouse PIWI proteins and EfPiwi is from a freshwater sponge; tags in brackets are library labels; higher = faster piRNA-guided slicing of the target", "details": "guide: L1MC piRNA 5'p-UAACUAAAUACUAUGCAAGCUGUAGGUCCU; auxiliary factor: 500 nM mouse GTSF1", "method_in_brief": "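Reactions were run for 0–8 or 0–960 min at 33 °C in HEPES–potassium acetate buffer, combining 1 nM active affinity-purified piRISC with one synthetic guide, […] transcribed, DNA-blocked target RNA library and, in some cases, 500 nM GTSF1 partner protein. Sequencing of uncleaved targets followed, with normalisation to depth and to weakly complementary targets. Three trials were pooled, k3 was capped at 0.0001 min^-1, and the pre-steady-state cleavage rate was taken from a burst-and-steady-state fit.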"}
{"sequence": "UCCACCUACAGCUAGCAUAGUAUUUAGAAA", "pre-steady-state target cleavage rate": "0.318 ± 0.054"}
{"sequence": "UCCUGCUAGUCCUUGCAUAGUAUUUACAAA", "pre-steady-state target cleavage rate": "0.006 ± 0.0042"}
{"sequence": "UCCUGCUAGUGCUUGCAUAGUAUUUAGUAA", "pre-steady-state target cleavage rate": "0.0259 ± 0.0089"}
{"sequence": "UCCUGGAUGAGCUUGCAUAGUAUAAUGUAA", "pre-steady-state target cleavage rate": "0.0364 ± 0.014"}
{"sequence": "UCGACCUACAGGAUGCAUAGUAUUUACAAA", "pre-steady-state target cleavage rate": "0.277 ± 0.032"}
{"sequence": "ACCUCCUACAGCUUGCAUAGUAUUUUCAAA", "pre-steady-state target cleavage rate": "0.582 ± 0.073"}
{"sequence": "UCCUCCUACAGCUUCGUUAGUAUUUAGUUA", "pre-steady-state target cleavage rate": "0.0754 ± 0.0086"}
{"sequence": "UCCUGCUACAGCUUGCACUAGUAUUUAGUUA", "pre-steady-state target cleavage rate": "0.0115 ± 0.0058"}
{"sequence": "UCCUGGUACACCUUGCAUAGUAUUUACAAA", "pre-steady-state target cleavage rate": "0.0813 ± 0.023"}
{"sequence": "UCCUGGAUGUCCUUGCAUAGUAUUAACUUA", "pre-steady-state target cleavage rate": "0.00404 ± 0.004"}
{"sequence": "UCCUGGAUGAGGUUGCAUAGUUUUUAGUUA", "pre-steady-state target cleavage rate": "0.012 ± 0.0054"}
{"sequence": "AGGACCUACAGCUACCAUAGUAUUUAGUAA", "pre-steady-state target cleavage rate": "0.45 ± 0.053"}
{"sequence": "UCCUCCUACAGCUACCAUAGUAUUUACAAA", "pre-steady-state target cleavage rate": "0.0268 ± 0.013"}
{"sequence": "UCCACCUACAGCUUGCAUUCUAUUUUCAAA", "pre-steady-state target cleavage rate": "0.0152 ± 0.0073"}
{"sequence": "UCCUGGAACAGCUUGCAUAGUAAAAAGUUA", "pre-steady-state target cleavage rate": "0.0976 ± 0.019"}
{"sequence": "UCCUGGAACAGCUUGCAUAGUUAUUAGAAA", "pre-steady-state target cleavage rate": "0.0177 ± 0.0088"}
{"sequence": "UCCUGGAUGUCGAACGUAAGUAUUUAAUUA", "pre-steady-state target cleavage rate": "< 0.0001"}
{"sequence": "UCCUGGAAGUGCUUGCAUAGUAUUUAGAAA", "pre-steady-state target cleavage rate": "0.0537 ± 0.016"}
{"sequence": "UCCUGGUACAGCUUGCAUAGUUAAUAGAAA", "pre-steady-state target cleavage rate": "0.023 ± 0.0089"}
{"sequence": "UCCACCUACUGCUUGCAUAGUAUUUUCAAA", "pre-steady-state target cleavage rate": "0.137 ± 0.02"}
{"sequence": "UCCUGGAUGUGGUUGCAAAGUAUUUAGUUA", "pre-steady-state target cleavage rate": "0.00806 ± 0.0043"}
{"sequence": "AGGACCUACAGCUUCGUUAGUAUUUAGUUA", "pre-steady-state target cleavage rate": "0.105 ± 0.014"}
{"sequence": "UCGACCUACAGCUUGCAUAGUAAAAAGUUA", "pre-steady-state target cleavage rate": "0.445 ± 0.04"}
{"sequence": "UCCACCUACUCGUUGCAUAGUAUUUAGAAA", "pre-steady-state target cleavage rate": "0.139 ± 0.021"}
{"sequence": "UCCUGGAUGAGGAAGCAUAGUAUUUAGUUA", "pre-steady-state target cleavage rate": "0.0108 ± 0.0036"}
{"sequence": "UCCUGGAACAGCUUCGUUAGUAUUUAGUAA", "pre-steady-state target cleavage rate": "0.0168 ± 0.0066"}
{"sequence": "UCCUGCUACAGGAAGCAUAGUAUUUAGAAA", "pre-steady-state target cleavage rate": "0.0565 ± 0.021"}
{"sequence": "UCCUGGAUGUCGAACGUAAGUAAUUUAGUUA", "pre-steady-state target cleavage rate": "< 0.0001"}
{"sequence": "UCCACCUACAGCUUGCAUAGUAUUUGUUA", "pre-steady-state target cleavage rate": "0.328 ± 0.041"}
{"sequence": "UCCUGGAUGAGCUUGCAUAGUAUUUUCAUA", "pre-steady-state target cleavage rate": "0.0798 ± 0.02"}
{"sequence": "UCCUGGAUGUCGAUGCAUAGUGUUUAGUUA", "pre-steady-state target cleavage rate": "0.00475 ± 0.0042"}
{"sequence": "UCCUCGUACAGCUUGCAUAGUAUUUUCAAA", "pre-steady-state target cleavage rate": "0.277 ± 0.034"}
{"sequence": "AGGACCUACAGCUUGCAUGAGUAUUUAGUUA", "pre-steady-state target cleavage rate": "0.194 ± 0.068"}
{"sequence": "UCCUGGUACAGCUUGCAUAGUAUUUUCAUA", "pre-steady-state target cleavage rate": "0.188 ± 0.051"}
{"sequence": "UCCUGGAUGUCGUUGCAUAGUACUUAGUUA", "pre-steady-state target cleavage rate": "0.00459 ± 0.0027"}
{"sequence": "UCGACCUACAGCUUGCAAUGUAUUUACAAA", "pre-steady-state target cleavage rate": "0.077 ± 0.018"}
{"sequence": "UGGACCUACAGCUUGCAUAGUAUUAUGUAA", "pre-steady-state target cleavage rate": "0.0131 ± 0.0045"}
{"sequence": "UCCUGGUACUGCUUGCAUAGUAUUUUCAAA", "pre-steady-state target cleavage rate": "0.0549 ± 0.016"}
{"sequence": "UCCUCCUAGAGCUUGCAUAGUAUUUACAAA", "pre-steady-state target cleavage rate": "0.23 ± 0.046"}
